Laboratory results from article PMC7819943, “Rice protein-binding microarrays: a tool to detect cis-acting elements near promoter regions in rice”.
This is one part of the list.

biological target: T1, OsWOX13 (Oryza sativa, UniProt Q5QMM3 1-267); assay: protein-binding microarray (RPBM); PBS, 2% BSA, 51.3 ng/ul salmon testes DNA, 50 uM zinc acetate, 200 nM TF, 25 C, 1 h; high values mean tight binding; conditions: protein: recombinant; tags: N-terminal polyhistidine and DsRed monomer fusion (pET32a); label: CyDye5-dUTP incorporated in the synthesized complementary strand; 3' TTTTT single-stranded linker to array surface; dsDNA, one strand shown
T1 sequence: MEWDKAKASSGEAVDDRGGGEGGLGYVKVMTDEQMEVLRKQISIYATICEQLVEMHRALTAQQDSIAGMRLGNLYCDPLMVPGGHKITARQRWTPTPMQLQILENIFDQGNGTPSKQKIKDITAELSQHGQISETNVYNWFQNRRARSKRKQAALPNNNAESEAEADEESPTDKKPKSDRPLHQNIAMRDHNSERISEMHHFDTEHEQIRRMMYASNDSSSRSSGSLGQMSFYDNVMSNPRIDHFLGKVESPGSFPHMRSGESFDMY
Outline: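 Transcription factors were made in E. coli BL21-CodonPlus as N-terminal fusions to a polyhistidine tag and DsRed, then purified on Ni–NTA. After primer extension with Cy5-dUTP and blocking with 2% BSA, a custom Agilent array was exposed for 1 h at 25 °C to 200 nM protein in PBS, 2% BSA, salmon testes DNA and 50 µM zinc acetate. Washed arrays were scanned on an Axon 4000B, and the binding signal is per-feature fluorescence intensity in arbitrary units.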

Row | Sequence | binding signal
1 | GCTGATCTGCTCTGACTGACCCCATCATCGCTGTTGGCTGCGGAGTCACCTAGTGCAG | 4700 fluorescence intensity (a.u.)
2 | GTATACAATGATTAAAGTATTTACTGTTACAATATTTAATCGGAGTCACCTAGTGCAG | 5610 fluorescence intensity (a.u.)
3 | TGTCGCTTATAATTATGCATATCAGCCAAAATTTAAACTTCGGAGTCACCTAGTGCAG | 3550 fluorescence intensity (a.u.)
4 | ATGACCTTAATTTACCTATATAAACCCAGGCCACGTCAGCCGGAGTCACCTAGTGCAG | 8620 fluorescence intensity (a.u.)
5 | ATTCCAATAGGCAATCAAAATCAGGTCACACCCTCCTCTCCGGAGTCACCTAGTGCAG | 8810 fluorescence intensity (a.u.)
6 | TAGTTGATAGCTGGCTATAATAGTATACTATTGTACGTGCCGGAGTCACCTAGTGCAG | 3660 fluorescence intensity (a.u.)
7 | TAGCGTATGATTAATTAAGTTTTAATTAAAATAAACCGAACGGAGTCACCTAGTGCAG | 19200 fluorescence intensity (a.u.)
8 | TATAAAGATTATAATATATATAAATGTATGTCATTACATTCGGAGTCACCTAGTGCAG | 4540 fluorescence intensity (a.u.)
9 | TTTTGCTTGATTGGTGGTCTGATGTATTTGATGAGTGCGACGGAGTCACCTAGTGCAG | 31300 fluorescence intensity (a.u.)
10 | ATTACAAATTTAGTAATCAAATCAACACATAACTATATGTCGGAGTCACCTAGTGCAG | 20000 fluorescence intensity (a.u.)
11 | GAGATTGATTGCATATCAGAAGTAAATGATTTCAACAGATCGGAGTCACCTAGTGCAG | 54400 fluorescence intensity (a.u.)
12 | TGCAGATAGAGAGAAACGCAGTGATTGCGGGCAACCTCCCCGGAGTCACCTAGTGCAG | 3380 fluorescence intensity (a.u.)
13 | CATATTAAAGTGTTGATTGATGGAGAGAGGGATTTCATCACGGAGTCACCTAGTGCAG | 25800 fluorescence intensity (a.u.)
14 | AATGGGACTTTGCCTGATTGATAGGGCGCCACGTGGCCCACGGAGTCACCTAGTGCAG | 29500 fluorescence intensity (a.u.)
15 | ATTTTCTTTGATAATTAGGACATTTAAATTCCACAGCAACCGGAGTCACCTAGTGCAG | 6690 fluorescence intensity (a.u.)
16 | GAAACAGATTGGAAAACTAGAGGAGAAGAACAGGTGCAATCGGAGTCACCTAGTGCAG | 27000 fluorescence intensity (a.u.)
17 | TATGATTTTAAATTCGTCATACTCTAGTTAGCCTAGAAAACGGAGTCACCTAGTGCAG | 4190 fluorescence intensity (a.u.)
18 | TAAAATTTGAAACAAATTTTCAGCAGGTTATTGCAACGATCGGAGTCACCTAGTGCAG | 11600 fluorescence intensity (a.u.)
19 | TATAGATTAACAATTACTTTTGAATATTTGCATGCTTGCTCGGAGTCACCTAGTGCAG | 16600 fluorescence intensity (a.u.)
20 | AGACAAAATTACCTTCATTTTAAAATTTAATACGGACTGTCGGAGTCACCTAGTGCAG | 5780 fluorescence intensity (a.u.)
21 | ACAATCGGATTCTAATTAAAGCTCATGATTTTAAGCGAATCGGAGTCACCTAGTGCAG | 9400 fluorescence intensity (a.u.)

Row | Sequence | binding signal
22 | AATATTTAATTTAGGAGAATTGAACTATTGAGTTTGATCACGGAGTCACCTAGTGCAG | 9280 fluorescence intensity (a.u.)
23 | CTATTTTATAAATTTATTTATTTATTTATTATACTTCACTCGGAGTCACCTAGTGCAG | 5120 fluorescence intensity (a.u.)
24 | TTAGATGATTTGTTTGCTTACTTCCATTCTAGCAGATAGACGGAGTCACCTAGTGCAG | 18500 fluorescence intensity (a.u.)
25 | GGTGTTAAGTGAAAAGATTGGTAAATCCCTGGTGCATTGTCGGAGTCACCTAGTGCAG | 3850 fluorescence intensity (a.u.)
26 | GTTAATTAATTATATTATAATAATTCTCTCAATTTGTCGCCGGAGTCACCTAGTGCAG | 65500 fluorescence intensity (a.u.)
27 | TGTCTATCAATCAGATTTGTGCAATCTTAGCTCCCCTGTACGGAGTCACCTAGTGCAG | 25900 fluorescence intensity (a.u.)
28 | AACTAACAGATTATTCTATGTCGGTTTATTATAATCCAACCGGAGTCACCTAGTGCAG | 15700 fluorescence intensity (a.u.)
29 | GAGCCTAATTAGTCCATGATAAGCCATAAGTGTTACGGTACGGAGTCACCTAGTGCAG | 12200 fluorescence intensity (a.u.)
30 | CCTTATTAAATCAATTAATAAGCACTTATTTAGTTCAGGCCGGAGTCACCTAGTGCAG | 27400 fluorescence intensity (a.u.)
31 | TGGGCTGATTTGCGAAAACGTATTCTGAAAGACCAAAACCCGGAGTCACCTAGTGCAG | 6080 fluorescence intensity (a.u.)
32 | TTCCAAATAAACCAATCTAGATTGGGACGCCTAATACAATCGGAGTCACCTAGTGCAG | 12400 fluorescence intensity (a.u.)
33 | TTAGTCAATCAACTTACCTTATATGCAAAAGCGCACAAGCCGGAGTCACCTAGTGCAG | 26300 fluorescence intensity (a.u.)
34 | GGTGGGGCCTATGATTGGCAACACAAAATGACTCCCCGAGCGGAGTCACCTAGTGCAG | 21800 fluorescence intensity (a.u.)
35 | TAATGACAGATTAATTAGACTTAATAAATTTATCTCATGGCGGAGTCACCTAGTGCAG | 33500 fluorescence intensity (a.u.)
36 | CTAAATATGAATAATCTGTCTAGAACAAGATTATGGGCATCGGAGTCACCTAGTGCAG | 7020 fluorescence intensity (a.u.)
37 | GTAGTAATTTAATCCGTTGCAGTGTTGCACAAATAGTGAACGGAGTCACCTAGTGCAG | 5410 fluorescence intensity (a.u.)
38 | TTCTTAAATTTTCTATATTTATCCGTTGAAATTTACACAACGGAGTCACCTAGTGCAG | 4180 fluorescence intensity (a.u.)
39 | CATAAACAAAATCAGAGAATCCCAACTGTTCCACTTGACGCGGAGTCACCTAGTGCAG | 3630 fluorescence intensity (a.u.)
40 | ATTTGACCCTGTATTAATTATCCCTTCTTAAAGATTTTGTCGGAGTCACCTAGTGCAG | 3400 fluorescence intensity (a.u.)
41 | AACCGGGAGATTGGAATATCTTAGAGAAACGCTCTTTTCACGGAGTCACCTAGTGCAG | 6520 fluorescence intensity (a.u.)
42 | GTTAATGAATTTATACACATATATATCTAGATTTATTAATCGGAGTCACCTAGTGCAG | 5520 fluorescence intensity (a.u.)
